Test results taken from ChEMBL document CHEMBL4888484, “Replenishing the malaria drug discovery pipeline: Screening and hit evaluation of the MMV Hit Generation Library 1 (HGL1) against asexual blood stage Plasmodium falciparum ,using a nano luciferase reporter read-out” (2022).
Hit rate of the full screen: of about 150,000 compounds, about 540 (0.36%) showed an effect of 50% or more. Some of the results follow.

Tested on: Plasmodium falciparum
Experiment: Primary screen in NF54 nanoGlo assay, in single point, at 2uM, 72h; a lower Z score goes with more inhibition
Format: functional, Erythrocyte
Settings: timepoint 72 hour

Compound	% Inhibition [%]	Z score
O=C(NC[C@H](OCCO)c1cccs1)c1ccc2c(c1)OCO2	-14	1.57
NC(=O)c1ccc(CN2CCNC(=O)[C@@H]2c2cccc(F)c2)cc1	-11	1.82
CCOC(=O)CNC(=O)NCCn1nnc2cc(S(=O)(=O)N(C)C)ccc21	-2	0.26
Cn1c(C(=O)N2CCn3nc(Cc4ccccc4)cc3C2)cc2ccccc21	-10	1.3
O=C(N[C@H]1CCc2nccn2C1)c1cc2c(s1)CCCC2	-14	2.98
COC(=O)CN1CCC(Oc2cncc(Cl)c2)CC1	-1	0.1
CCNC(=O)N1CCN(C(=O)c2ccc(N3CCCC3)nc2)CC1	-17	3.2
O=C(Nc1cncc(Cl)c1)N[C@@H]1C=CCCC1	-12	2.31
Fc1ccc(COc2ccc3ccccc3c2CNc2ccc(Br)cc2)cc1	36	-0.9
COc1ccc(C)c(NC(=O)N2CCN(C(=O)OC(C)(C)C)C[C@@H]2C)c1	-7	0.79
COc1ccc(C(=O)N2C[C@H]3CC[C@@H](C2)N(CC2CC2)C3=O)cc1O	-21	1.96
Cc1ccc(NS(=O)(=O)c2cc3[nH]c4c(c3cc2C)C(=O)CC(C)(C)C4)c(C)c1	-9	1.78
COC(=O)CC1(NC(=O)Nc2cc(Cl)ccc2Cl)CCS(=O)(=O)CC1	4	-0.59
O=C1Cc2cccc(-c3ccc(C4(O)CCC4)cc3)c2N1	-12	2.46
C[C@]1(c2ccccc2)CCC(=O)N(CCOCCO)C1	-5	0.89
O=C(O)Cc1csc(NC(=O)C2CC2c2ccc3c(c2)OCCO3)n1 (centres undefined)	-3	0.36
Cc1cc(C)n(CC(=O)NCc2cccc(Cl)c2)c1-c1nc(C2CC2)no1	-5	0.74
C#CCCC1(CCC(=O)N2CCC[C@H](c3ccc(F)c(F)c3)C2)N=N1	-13	1.57
O=C(NCCc1ccccn1)[C@@H]1CCN(c2ccc(Br)cc2F)C1=O	-9	1.08
Cc1cccc(Oc2nc3ccccc3n3c(=O)n(CC(=O)NCc4ccc(Cl)cc4)nc23)c1C	32	-4.6
CC(C)N(C)S(=O)(=O)NC[C@H]1CCCO1	5	-0.55

Compound	% Inhibition [%]	Z score
O=C(N[C@H]1CCN(c2ccc(-c3ccccc3F)nn2)C1)c1ccc2c(c1)OCO2	-26	5.03
O=C(CN1CCN(c2cccc(Cl)c2)C1=O)NCc1cccnc1	2	-0.29
Cc1nc(C)c(CNC(=O)c2cc(C)c(Br)cc2C)o1	-4	0.5
C=CCN(CC1CCCCC1)C(=O)[C@H](C)N	2	-0.23
Clc1ccccc1-c1cc(COc2ccc3ccccc3c2)no1	1	-0.1
Cc1cc(OCC(=O)Nc2ccccc2)nc2c1c(-c1ccccc1)nn2-c1ccccc1	0	-0.02
C[C@@H](C(=O)N(C)Cc1cccc(F)c1)N(C)Cc1ccc2c(c1)OCO2	-12	1.08
CC1CCC(NC(=O)CN[C@@H](CO)C2CC2)CC1 (some centres undefined)	6	-1.23
Cc1nccn1CCCC(=O)NC(c1cnn(C)c1)[C@H]1C[C@@H](O)C1 (some centres undefined)	-7	1.45
CC1CCN(S(=O)(=O)c2ccc3[nH]cc(C(=O)NCc4ccco4)c(=O)c3c2)CC1	2	-0.19
CC(C)(C)c1cc(NC(=O)c2ccc(F)cc2Cl)n([C@H]2CCS(=O)(=O)C2)n1	-12	1.55
Cc1cc([C@]2(C(F)(F)F)NCCNC2=O)cc(C)c1O	-16	2.06
CCn1cc(CNC(=O)C2=NN(c3ccccc3)[C@H](C(N)=O)C2)cn1	-21	1.9
CC(C)(C)OC(=O)NC1CCN(C(=O)C[C@@H](Cn2cnnn2)c2ccc(Cl)cc2)CC1	-6	0.84
CN(C)S(=O)(=O)CC(=O)N1C[C@H](c2ccccc2)c2ccccc21	-17	1.55
COC1(C)CCN(C(=O)c2ccon2)CC1	-4	0.52
Cc1nc(NC(=O)[C@@H](C)C(F)(F)F)n[nH]1	-6	1.28
CS(=O)(=O)NCCN1CCC(F)(F)CC1	5	-0.73
Cc1ccc(C2(C)CC(=O)N(CC3CCNC(=O)CC3)C2=O)cc1 (centres undefined)	10	-1.32
COc1ccc(CNC(=O)c2noc3c2C[C@@H](C)CC3)cc1	1	-0.13
CCO[C@H]1CCCN(C(=O)Cn2ncc(=O)c3ccccc32)C1	-2	0.3

Compound	% Inhibition [%]	Z score
CCc1nocc1CN(C)C(=O)c1ccc2[nH]c3c(c2c1)CCCC3	9	-1.13
Cc1nc(CN[C@H]2CC(=O)N(c3ccccc3)C2)cs1	-18	3.66
Cc1cccc2[nH]c([C@H]3CCCN(C(=O)CCc4cccnc4)C3)nc12	-14	1.72
Cn1c(=O)c2c(ncn2CC(=O)OCc2ccccc2C#N)n(C)c1=O	1	-0.08
Cc1cc(C)nc(-n2nc(C)c(CCc3ccccc3)c2O)n1	32	-3.67
NCc1nc(C(=O)N(CCc2ccc(F)cc2)C2CCCC2)cs1	-14	1.54
CC1CCC(NC(=O)CCOCC(F)F)CC1C (centres undefined)	3	-0.3
CC(C)NC(=O)OC1CN(C(=O)[C@@H]2CCCc3nccn32)C1	0	0.08
Cc1ccccc1CC(=O)N1CCC[C@@](F)(C(=O)NCC2CC2)C1	-22	1.92
C[C@@H](C(=O)NCCS(=O)(=O)N(C)C)n1cc(Cl)cn1	-7	1.13
C[C@H]1CN(Cc2cn(C)c(=O)n(C)c2=O)c2ccccc21	-1	0.18
CCn1nc(C)cc1C(=O)Nc1ccccc1-n1ccc(C(N)=O)n1	-3	0.5
CCCc1cc(C(=O)N[C@H](c2ncccc2C)C2CC2)[nH]n1	3	-0.51
Cn1c(CS(=O)(=O)c2ccccc2)c(C#N)c2ccccc21	-1	0.26
CN(Cc1cccnc1)c1nc2c(c(=O)[nH]1)Cc1ccccc1OC2	1	-0.19
CCc1ccc(O)c(C(=O)N2CCC(C(=O)Nc3nc(C)cs3)CC2)c1	-9	0.85
Cc1c(CN(C)C(=O)c2ccc(-c3ccc4c(c3)OCC4)cc2)cnn1C	-20	2.12
CC1(c2nnc(-c3ccc4ccccc4n3)o2)CCOCC1	-4	0.63
COc1ccccc1C1=NS(=O)(=O)N(C)C(C(=O)N2C(C)CCCC2C)=C1 (centres undefined)	-5	0.99
O=C(NCc1cncc(C2CC2)c1)c1ccc2ccccc2n1	-5	0.77
Cc1ccc(-c2noc(-c3sccc3NC(=O)c3ccccc3F)n2)cc1	7	-0.73

Compound	% Inhibition [%]	Z score
CC(O)C1CCN(C(=O)NCCCc2cc(F)cc(F)c2)C1 (centres undefined)	1	-0.07
Cc1cc2c(cc1S(=O)(=O)N(Cc1ccccc1)C(C)C)OCC(=O)N2Cc1noc(C2CC2)n1	-2	0.29
CC(C)CCC1(C2CCN(C(=O)[C@H]3C[C@@H]4C=C[C@H]3C4)CC2)NC(=O)N(CCN(C)C)C1=O (some centres undefined)	-5	0.61
O=C(CCc1ccccc1)N1CCC2(CC1)C[C@@H](N(Cc1ccccc1)C1CC1)CCO2	-11	1.41
CCc1nc(C(=O)N[C@H]2CCOC2(C)C)nn1-c1ccccc1	-3	0.42
CC1CCCCC1NC(=O)C1CCN(C(=O)N2CCOc3ccc(Cl)cc32)CC1 (centres undefined)	2	-0.45
COCCNC(=O)c1nc(-c2nc(-c3ccc4c(c3)OCO4)no2)cs1	1	-0.17
CC(O)(CN1CCN(C(C#N)c2ccccc2)CC1)C(F)(F)F (centres undefined)	-2	0.26
CCOc1ccccc1NC(=O)N1Cc2cncnc2C1	-6	0.77
Cc1ncc(C(=O)NCc2cc(Cl)cc3c(C)c(-c4ccccc4)[nH]c23)cn1	-15	1.39
COc1cc2cc(CNCc3cn(C)nc3C)c(=O)n(CC3CCCCC3)c2cc1OC	-7	0.98
CC(=O)N1CCN(C(=O)C[C@@H]2c3nc(NC(=O)c4ccc(F)cc4)sc3C[C@@H]3[C@](C)(CO)[C@H](O)CC[C@]32C)CC1	6	-0.89
O=C(COc1ccc(Cl)c(Cl)c1)N(C1CCCCC1)[C@H]1CCS(=O)(=O)C1	-5	0.8
CCC(NC(=O)N1CCCC(OC2CCC2)C1)C(F)F (centres undefined)	-25	2.28
Cc1cccc(-c2nc3[nH]c(CN4CCN(c5ccc(F)cc5)CC4)cc(=O)n3n2)c1	12	-1.44
CCCCc1nn(CC(=O)N2CCC[C@H](C)C2)c(=O)n1Cc1ccccc1	5	-1.06
O=C(c1cccc(Cl)c1)N1CC[C@@]2(CCCN(CC3CC3)C2=O)C1	4	-0.79
Cc1cc(Cl)ccc1C1=CCN(C(=O)Cc2nc(C3CC3)nn2C)CC1	9	-1.41
CC(=O)Nc1cc(Br)c(O)c(Br)c1	-3	0.44
